Measured values from PubChem BioAssay AID2675 (National Center for Advancing Translational Sciences (NCATS), 2010).
Out of some 280,000 compounds screened, about 100 (0.036%) were called active. The inconclusive results got no clear call from the source; some entries with a clear call stand among them for comparison. Calls come from the whole dose curve; as a rule, active = well fitted inhibition curve with a large enough effect in the signal ratio, with a control signal flat (not every such curve was filed as active); inconclusive = small, poorly fitted or top-dose-only effect, or effect the other way, or a change in a side signal; inactive = no such curve, though single readings can be large or run the other way; the % refers to the signal ratio. Where the call is inconclusive, the potency comes from a doubtful curve fit. A note “side channel” means that the fit belongs to a control or component signal, not to the main read-out.

biological target: Muscleblind-like protein 1 (Homo sapiens) (UniProt Q9NR56); assay: qHTS Assay for Inhibitors of MBNL1-poly(CUG) RNA binding; details: TR-FRET MBNL1-His/biotin-(CUG)12 binding, 665/545 ratio; activity change, negative = inhibition: at 57.5 µM (top of the series)
How it was run: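 Compounds (final 92 nM to 58 uM) are added to His-tagged MBNL1 and biotin-(CUG)12, then terbium anti-His antibody and streptavidin-XL665 (5 nM final). After 60 min at room temperature, the 665/545 nm ratio is read.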
% is set by controls: 0 for no effect and ±100 for the full control effect; potency is the fitted concentration of half-maximal effect; tags give direction and shape of the fitted curve or compound fluorescence and quenching.

UniProt Q9NR56, sequence (Q9NR56 whole entry, looked up): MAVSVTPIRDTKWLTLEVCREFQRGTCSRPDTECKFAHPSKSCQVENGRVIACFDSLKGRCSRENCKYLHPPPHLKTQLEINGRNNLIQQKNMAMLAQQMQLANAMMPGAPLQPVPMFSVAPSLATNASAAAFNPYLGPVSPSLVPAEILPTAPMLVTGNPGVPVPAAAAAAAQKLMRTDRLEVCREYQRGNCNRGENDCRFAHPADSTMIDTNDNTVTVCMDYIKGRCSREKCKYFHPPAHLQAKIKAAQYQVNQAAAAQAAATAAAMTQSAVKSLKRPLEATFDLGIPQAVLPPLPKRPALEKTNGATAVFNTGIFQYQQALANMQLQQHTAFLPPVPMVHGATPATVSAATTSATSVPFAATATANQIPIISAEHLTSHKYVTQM

| SMILES | Potency | activity change, negative = inhibition |
| --- | --- | --- |
| COc1ccc(-c2cc(OC)c3c(C)oc(C)c3c(=O)c2)cc1OC | inconclusive: 10 µM [quencher, side channel, partial curve] |  |
| CNC(=O)c1c(NC(=O)c2ccc(S(=O)(=O)N3CCCC3)cc2)sc2c1CCN(C(C)C)C2 | inconclusive: 12.6 µM [quencher, side channel, partial curve] |  |
| COc1ccc(-n2c(N)c(C(=O)NCc3ccco3)c3nc4ccccc4nc32)cc1 | inconclusive: 4.47 µM [quencher, side channel, full curve] |  |
| COc1cccc2c1-c1c(C(=O)O)cccc1C2=O | inconclusive: 14.1 µM [quencher, side channel, partial curve] |  |
| CCCCn1c(N)c(N(CC(C)C)C(=O)c2cccc(S(=O)(=O)N3CCCCCC3)c2)c(=O)[nH]c1=O |  | inactive: 2.47% |
| Cc1csc(NC(=O)CCNC(=O)c2ccc([N+](=O)[O-])cc2)n1 | inconclusive: 14.1 µM [quencher, side channel, partial curve] |  |
| O=C(CSc1nnnn1C1CCCC1)NCc1ccc2c(c1)OCO2 | inconclusive: 0.562 µM [fluorescent, side channel, single point] |  |
| Cc1ccc2nc(N3CCOCC3)c(C=O)c(=O)n2c1 | inconclusive: 20 µM [quencher, side channel, partial curve] |  |
| Cc1ccc2c(c1)COc1c3ccc(C(=O)O)cc3nn1-2 | inconclusive: 15.8 µM [quencher, side channel, partial curve] |  |
| Cc1ccc(CN(Cc2cc3cc(C)ccc3[nH]c2=O)C(=O)N2CCOCC2)cc1 |  | inactive: -1.5% |
| S=c1[nH]nc(COc2ccccc2)n1/N=C/c1ccc(Br)cc1 |  | inactive: 7.87% |
| COc1ccc(/C=N/NC(=O)CNc2n[nH]c(=O)[nH]c2=O)cc1OC |  | inactive: 15.1% |
| CCN(CC)CCCN1C(=O)C(O)=C(C(=O)c2cc3cccc(OC)c3o2)C1c1ccncc1 (configuration not stated) | inconclusive: 31.6 µM [quencher, side channel, single point] |  |
| CN(C)c1ccc(C(C(=O)NCC2CCCO2)N(C(=O)c2snc(C(N)=O)c2N)c2ccccc2)cc1 (configuration not stated) |  | inactive: 3.18% |
| Cc1onc(-c2ccccc2Cl)c1C(=O)Nc1cccc(-c2nc3ncccn3c2C)c1 | inconclusive: 31.6 µM [quencher, side channel, partial curve] |  |
| CCOC(=O)C1CCN(Cc2ccc(OC)cc2OC)CC1 |  | inactive: -9.73% |
| CC1=C([N+](=O)[O-])C(c2ccc(O)c(O)c2)NC(=O)N1 (configuration not stated) | inconclusive: 31.6 µM [quencher, side channel, partial curve] |  |
